Laboratory results from article PMC4336329 (PLoS ONE, 2015).
About 14,000 (4.5%) of roughly 310,000 compounds showed an effect of 50% or more. Effects have a minus sign here. This is one part of the list.

molecular target: human ether-à-go-go-related gene (hERG) potassium channel (human, UniProt Q12809); test: primary screen, population patch clamp on CHO cells stably expressing hERG
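Further: peak tail current of the secondary pulse compared with the same well before compound.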

Sequence of human ether-à-go-go-related gene (hERG) potassium channel (Q12809 whole entry, looked up): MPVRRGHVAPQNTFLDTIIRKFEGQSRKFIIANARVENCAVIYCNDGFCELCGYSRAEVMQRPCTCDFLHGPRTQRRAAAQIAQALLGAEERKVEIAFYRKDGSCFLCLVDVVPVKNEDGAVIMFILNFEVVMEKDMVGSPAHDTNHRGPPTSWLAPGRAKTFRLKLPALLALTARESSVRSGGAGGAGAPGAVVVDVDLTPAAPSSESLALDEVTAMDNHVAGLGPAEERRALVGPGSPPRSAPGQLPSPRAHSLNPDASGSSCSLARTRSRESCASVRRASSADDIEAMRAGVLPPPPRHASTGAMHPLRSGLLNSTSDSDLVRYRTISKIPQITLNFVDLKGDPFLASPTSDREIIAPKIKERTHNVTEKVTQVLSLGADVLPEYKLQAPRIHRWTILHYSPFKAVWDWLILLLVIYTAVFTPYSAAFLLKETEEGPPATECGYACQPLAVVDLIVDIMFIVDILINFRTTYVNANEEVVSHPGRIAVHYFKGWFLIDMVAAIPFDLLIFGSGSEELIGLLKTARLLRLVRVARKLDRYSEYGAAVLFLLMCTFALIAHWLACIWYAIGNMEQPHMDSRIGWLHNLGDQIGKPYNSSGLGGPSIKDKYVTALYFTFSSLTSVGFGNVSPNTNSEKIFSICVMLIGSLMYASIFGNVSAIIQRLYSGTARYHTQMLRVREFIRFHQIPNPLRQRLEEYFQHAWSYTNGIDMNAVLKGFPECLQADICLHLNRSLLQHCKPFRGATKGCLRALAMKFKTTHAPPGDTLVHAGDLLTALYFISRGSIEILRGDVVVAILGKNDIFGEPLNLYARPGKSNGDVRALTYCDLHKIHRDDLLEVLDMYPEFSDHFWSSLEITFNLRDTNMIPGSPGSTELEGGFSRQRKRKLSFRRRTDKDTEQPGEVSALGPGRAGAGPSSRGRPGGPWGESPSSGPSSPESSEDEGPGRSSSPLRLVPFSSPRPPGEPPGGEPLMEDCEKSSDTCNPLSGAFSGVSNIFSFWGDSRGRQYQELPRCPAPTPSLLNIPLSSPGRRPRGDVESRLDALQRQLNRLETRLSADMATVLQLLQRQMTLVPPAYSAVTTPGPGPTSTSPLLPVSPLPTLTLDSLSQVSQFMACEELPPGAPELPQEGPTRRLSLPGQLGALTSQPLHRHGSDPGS

Compound | hERG current change (%, negative = inhibition) at 10uM [%]
CN(CC(=O)NCCc1ccccc1)S(=O)(=O)c1ccccc1 | 15.7
CCOC(=O)COc1ccc2cc(C(=O)OCC)c(=O)oc2c1 | -12
Cc1cccc(C)c1OCC(=O)Nc1ccc2c(c1)OCCO2 | -6.24
CC(=O)Nc1cccc(NC(=O)CCn2cnc3cc(C)c(C)cc32)c1 | -1.57
COc1ccc(C(=O)Nc2ccc3nc(N4CCOCC4)sc3c2)cc1OC | 7.05
COC(=O)C1=C(c2ccc(F)cc2OCc2ccccc2)C[C@@H]2CC[C@H]1N2C(=O)NC1CCCCC1 | -2.99
Nc1nc(-c2ccco2)nn1C(=O)c1cccnc1 | 13.2
CC(C)(C)C(=O)NC(=S)Nc1ccccc1C(=O)NC1CCCCC1 | -18
Cn1c(N)c(C(=O)COC(=O)CSc2ccccc2)c(=O)n(C)c1=O | -33.6
CN(C)c1ccc(NS(=O)(=O)c2cc(Cl)ccc2Cl)cc1 | -4.96
CC(=O)Nc1ccc(S(=O)(=O)NC(C(=O)O)C(C)O)cc1 (stereo not drawn) | 25.3
CCOC(=O)C(=O)Nc1ccc2c(c1)OCO2 | 7.92
O=C(/C=C/c1ccccc1)NC1CC2CCCC(C1)N2Cc1ccccc1 (stereo not drawn) | -69.7
O=C(CCCCCn1c(=S)[nH]c2ccc(N3CCOCC3)cc2c1=O)NCc1cccc(Cl)c1 | 28.1
CSc1nnc2ccc(-c3ccc(C)cc3)nn12 | -19.8
O=C(CNC(=O)c1ccc(S(=O)(=O)N2CCCC2)cc1)N/N=C/c1ccco1 | -17.1
Cc1cccc2c(=O)oc(-c3ccccc3Cl)nc12 | 14.2
COc1ccc(C2CC(c3c(-c4ccccc4)c4cc(Cl)ccc4[nH]c3=O)=NN2C(=O)CCC(=O)O)cc1 (stereo not drawn) | 11
C/C(=N\Nc1nc2ccccc2[nH]1)c1ccccn1 | -72.8
O=c1c2ccccc2c(-c2ccccc2)nn1-c1ccccn1 | -2.1
CC(=O)c1cc(CN2CCN(Cc3ccccc3)C(CCO)C2)cs1 (stereo not drawn) | 2.03
COC(=O)NCC(c1cccnc1)N1CCN(c2ccccc2)CC1 (stereo not drawn) | -13.3
COc1ccc(OCC#CCN2CCC(C)CC2)cc1.O=C(O)C(=O)O | -11.4

Compound | hERG current change (%, negative = inhibition) at 10uM [%]
Cn1c(O)c(C=Nc2ccccc2)c(=O)n(C)c1=O | 12.9
Cc1ccccc1NC(=O)CCCCCN1C(=O)[C@@H]2Cc3ccccc3CN2C1=O | -10.4
O=C(CCNC(=O)C1CCN(S(=O)(=O)c2ccc(F)cc2)CC1)NC1CC1 | 15.8
CC(C)(C)NCC1(CO)SC(N)=NC1=O.O.O=S(=O)(O)O (stereo not drawn) | 6.34
CNC(=O)CSc1nnc(-c2ccccn2)n1Cc1ccco1 | -13.2
COc1ccc(/C=N/N2CCN(c3ccc(Cl)cc3)CC2)cc1 | 13.4
COC(=O)c1sc(S(=O)(=O)NC(C)C(=O)O)c(C(=O)OC)c1C (stereo not drawn) | 3.53
Cc1ccc(-c2cc(C(=O)Nc3cccnc3)[nH]n2)c(O)c1C | 3.9
CCCC(C)C(=O)Nc1nc(C)c(-c2csc(Nc3cc(OC)ccc3OC)n2)s1 (stereo not drawn) | 14.4
COc1ccccc1NC(=O)COc1ccccc1C(=O)Nc1ccccc1 | 27.6
O=C(NC(=S)N1CCN(Cc2ccccc2)CC1)c1ccccc1 | 6.47
O=C(COc1ncnc2ccccc12)N1CCOCC1 | 11.2
Cn1c(=O)c2c(SCC(=O)N3CCOCC3)nc(C3CCCCC3)nc2n(C)c1=O | -2.3
COC(=O)CSc1nc(NC(C)C)nc(N2CCOCC2)n1 | -5.59
Cc1cc(Cl)ccc1NNC(=O)c1snnc1C | 9.93
Cc1ccc(NC(=O)CCc2c(C)nc3ncnn3c2C)cc1 | -9.42
O=C(N/N=C/c1coc2ccccc2c1=O)c1cc(Br)c(O)c(Br)c1 | 20.6
CC(C)(C#N)NC(=O)C1CCCN1S(=O)(=O)c1ccc2ccccc2c1 (stereo not drawn) | -33.6
COC(=O)c1ccc(C)c(NC(=O)CCSc2ccc(C)cc2)c1 | -8.39
O=C(Cc1cccs1)NCc1ccc(Cl)cc1 | -15.3
CCCCOc1ccc(C(=O)N/C(=C/C=C/c2ccccc2)C(=O)NCCO)cc1 | -9.18
Cc1ccccc1-n1ncc(C(C)NC(=O)c2ccco2)c1C (stereo not drawn) | 1.76
